Data: PubChem BioAssay AID504706 (National Center for Advancing Translational Sciences (NCATS), 2011)
The campaign covered roughly 320,000 compounds. About 200 (0.062%) were called active. The shares of active, inactive and inconclusive entries below differ from those in the screen. Calls follow the shape of the dose curve; as a rule, active = well fitted activation curve with a large enough effect; inconclusive = small, poorly fitted or top-dose-only effect; inactive = no such curve, though single readings can be large or run the other way. No potency is given beside an inconclusive call; the fits are too rough.

Assay: qHTS assay for re-activators of p53 using a Luc reporter; also: nearly all actives have a fitted effect of over 45% in size
Conditions: H1299 p53-A138V BP100-luciferase reporter, luminescence, 24 h; series mostly up to 92.2 µM
Outline: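 H1299 (p53-null), stable ts p53-A138V + BP100-Luc; 1000 cells/well, Opti-MEM/10% FBS; cpd 4 pt, 1:5; 24 h, 37 deg C, 5% CO2; detection reagent 10 min RT; luminescence.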
Potency is read from the fitted curve at half-maximal effect; tags tell the direction and shape of the fitted curve.

Question: With Cn1c(=O)c2sccc2n2c(CCCC(=O)NCc3ccc4c(c3)OCO4)nnc12 as the molecule, how does the Potency read?
Answer: inactive

Question: Which Potency does the source give for COc1cccc(/C=C2\SC(=S)N(c3cccnc3)C2=O)c1OC here?
Answer: inactive

Question: Which Potency does the source give for Cc1nc2ccccc2n1CC(=O)c1ccccc1 here?
Answer: inconclusive [activator, partial curve, poor fit]

Question: Which Potency does the source give for COc1cccc(C(=O)NC2CC3CCC(C2)N3Cc2ccccc2)c1 (stereo not given) here?
Answer: inconclusive [activator, single point]

Question: Which Potency does the source give for O=c1c(/C=N/Nc2ccccc2)c(Sc2nnnn2-c2ccccc2)nc2ccccn12 here?
Answer: inactive

Question: For N#C/C(=N\Nc1ccccc1)C(=N)N1CCOCC1, which Potency is on record?
Answer: inconclusive [activator, single point]

Question: With Cc1ccc(C(=O)NCCc2nnc3ccc(SCC(=O)N4CCCC4)nn23)cc1 as the molecule, how does the Potency read?
Answer: inconclusive [activator, partial curve, poor fit]

Question: For N#CC(C(=O)NCc1ccccc1)c1nc2ccccc2nc1N1CCCC1 (stereo not given), which Potency is on record?
Answer: inactive

Question: With O=C(c1cc(COc2ccc(F)cc2Cl)on1)N1CC2C[C@@H]3CC1C[C@H](C2)C3 as the molecule, how does the Potency read?
Answer: inconclusive [activator, partial curve, poor fit]

Question: Which Potency does the source give for CCNc1nc(-c2cc3ccccc3o2)cs1 here?
Answer: inconclusive [activator, partial curve, poor fit]

Question: For CCOC(=O)C1=C(C)N=C(SC)N(C)C1c1ccccc1 (stereo not given), which Potency is on record?
Answer: inconclusive [activator, full curve, poor fit]

Question: For COC(=O)c1[nH]c2cc(OC)c(OC)cc2c1/C=N/Nc1ccccc1, which Potency is on record?
Answer: inactive

Question: With CNS(=O)(=O)c1cccc2nsnc12 as the molecule, how does the Potency read?
Answer: inconclusive [activator, single point]

Question: Which Potency does the source give for CCN(CC)CCNC(=S)Nc1ccc(Cl)cc1 here?
Answer: inactive

Question: With O=C(/C=C/Nc1ccccc1)c1ccc(Oc2ncccn2)cc1 as the molecule, how does the Potency read?
Answer: inconclusive [activator, full curve, poor fit]

Question: For O=C(NCCSc1ccccc1)c1ccc(CN2CCOCC2)cc1, which Potency is on record?
Answer: inactive

Question: With Cc1cc(Cl)ccc1NC(=O)CCN1C(=O)NC(C)(C)C1=O as the molecule, how does the Potency read?
Answer: inconclusive [activator, single point]

Question: With CC(C)(C)c1ccc(OCc2ccc(C(=O)N/N=C/c3ccc([N+](=O)[O-])cc3)o2)cc1 as the molecule, how does the Potency read?
Answer: inconclusive [activator, partial curve, poor fit]

Question: For O=C(Nc1nccs1)C1CC(=O)N(c2ccc(Cl)cc2)C1 (stereo not given), which Potency is on record?
Answer: inactive

Question: With O=C(Nc1ccc(Cl)cc1)c1cc2c(cc1O)[nH]c1ccccc12 as the molecule, how does the Potency read?
Answer: inactive

Question: For O=C(CN1CCN(c2ncccn2)CC1)N1CCc2ccccc21, which Potency is on record?
Answer: inconclusive [activator, partial curve, poor fit]

Question: Which Potency does the source give for COc1ccccc1Nc1nc2ccccc2[nH]1 here?
Answer: inconclusive [activator, partial curve, poor fit]

Question: Which Potency does the source give for CN(C)CCCNC(=S)Nc1ccc(Br)cc1 here?
Answer: inactive

Question: With Clc1ccc(-c2nc(Cc3ccccc3)no2)cc1 as the molecule, how does the Potency read?
Answer: inconclusive [activator, full curve, poor fit]

Question: Which Potency does the source give for C=CCn1c(-c2cccc(S(=O)(=O)N(CC)CC)c2)n[nH]c1=S here?
Answer: inactive

Question: With Cc1ccc(CNC(=O)CN2C(=O)NC3(CCCC3)C2=O)cc1 as the molecule, how does the Potency read?
Answer: inactive

Question: Which Potency does the source give for COC(=O)Cc1nc(NC(=O)c2cccs2)sc1C here?
Answer: inconclusive [activator, partial curve, poor fit]

Question: Which Potency does the source give for CC(C)C(=O)OCC(=O)Nc1ccc(N=Nc2ccccc2)cc1 here?
Answer: inconclusive [activator, full curve, poor fit]

Question: For COc1ccc2c(CN3CCN(S(=O)(=O)c4cccs4)CC3)cc(=O)oc2c1, which Potency is on record?
Answer: inconclusive [activator, single point]

Question: For O=C(c1cnn2c(C(F)(F)F)cc(-c3ccc4c(c3)OCO4)nc12)N1CCCCC1, which Potency is on record?
Answer: inconclusive [activator, single point]

Question: For CCc1ccccc1NC(=O)CSc1nc2n[nH]c(C)c2c(=N)n1-c1ccc(OC)cc1, which Potency is on record?
Answer: inactive

Question: For COc1ccc2sc(-c3ccc(N(C)C)cc3)c(-c3cnc(OC)nc3)c2c1, which Potency is on record?
Answer: inconclusive [activator, partial curve, poor fit]

Question: For COc1ccc(NC(=O)COc2ccc3c(c2)OCO3)cc1, which Potency is on record?
Answer: inactive

Question: For CCCc1nn(C)c(C(=O)Nc2cccc(C)c2)c1Cl, which Potency is on record?
Answer: inconclusive [activator, partial curve, poor fit]

Question: For c1ccc(OCCN2CCN(C(c3ccccc3)c3ccccc3)CC2)cc1, which Potency is on record?
Answer: inconclusive [activator, partial curve, poor fit]

Question: For CN(C)c1cccc(C(=O)NC2CCCCCC2)c1, which Potency is on record?
Answer: inconclusive [activator, full curve, poor fit]

Question: Which Potency does the source give for CC(=O)c1cc(F)c(N2CCN(C(=O)c3ccco3)CC2)cc1C here?
Answer: inconclusive [activator, partial curve, poor fit]

Question: Which Potency does the source give for Cc1nc(-c2ccc(S(=O)(=O)NCC3CCN(C(=O)OC(C)(C)C)CC3)s2)cs1 here?
Answer: inconclusive [activator, partial curve, poor fit]

Question: For Cc1ccc(C2CC2c2n[nH]c(=S)n2-c2cccc(Cl)c2)cc1 (stereo not given), which Potency is on record?
Answer: inactive

Question: With Clc1ccc(Nc2nc(C3CC3)cs2)cc1 as the molecule, how does the Potency read?
Answer: inconclusive [activator, partial curve, poor fit]

Question: With O=C(COC(=O)/C=C/c1ccco1)Nc1ccc(F)cc1Cl as the molecule, how does the Potency read?
Answer: inactive

Question: With O=C(/C=C/c1ccc(-c2ccccc2)o1)c1ccccc1 as the molecule, how does the Potency read?
Answer: inconclusive [activator, full curve, poor fit]

Question: Which Potency does the source give for O=C(N/N=C/C(Cl)=C/c1ccc([N+](=O)[O-])cc1)C(=O)Nc1ccccc1C(=O)O here?
Answer: inconclusive [activator, single point]

Question: For CC(C)CNC(=S)NC(=O)c1ccc(Cl)cc1Cl, which Potency is on record?
Answer: inconclusive [activator, partial curve, poor fit]

Question: With COc1cc(OC)c2c(-c3cccc(-c4ccc(C(C)=O)cc4)c3)cc(=O)oc2c1 as the molecule, how does the Potency read?
Answer: inconclusive [activator, partial curve, poor fit]

Question: For CCCSc1nn2c(=O)c3ccccc3nc2s1, which Potency is on record?
Answer: inconclusive [activator, full curve, poor fit]

Question: Which Potency does the source give for Cc1cc(C(=O)COC(=O)c2ccco2)c(C)n1Cc1ccco1 here?
Answer: inactive

Question: Which Potency does the source give for CCN1CCN(C(=S)NC(=O)c2cccs2)CC1 here?
Answer: inactive

Question: For O=C1CC(c2nc3ccccc3[nH]2)CN1c1ccccc1 (stereo not given), which Potency is on record?
Answer: inactive

Question: Which Potency does the source give for c1ccc(COc2ccc(OCCOCCn3cncn3)cc2)cc1 here?
Answer: inconclusive [activator, full curve, poor fit]

Question: Which Potency does the source give for O=C(COc1ccccc1)Nc1ccccc1Cl here?
Answer: inconclusive [activator, partial curve, poor fit]

Question: Which Potency does the source give for Cc1ccc2nc(SCC(=O)c3ccc4c(c3)OCO4)[nH]c2c1 here?
Answer: inconclusive [activator, partial curve, poor fit]

Question: For Nc1nc(CSc2ncccn2)nc(Nc2ccccc2)n1, which Potency is on record?
Answer: inconclusive [activator, single point]

Question: For CCN(CC(=O)NCc1cccs1)S(=O)(=O)c1ccc([N+](=O)[O-])cc1, which Potency is on record?
Answer: inconclusive [activator, single point]

Question: With C/C(=N\NC(=O)c1csc(C)c1C)c1ccc(C)s1 as the molecule, how does the Potency read?
Answer: inconclusive [activator, partial curve, poor fit]

Question: For Cc1ccc(S(=O)(=O)N/N=C/c2c[nH]c3ccccc23)cc1, which Potency is on record?
Answer: inactive

Question: With CCSc1nc2cc(OC)c(OC)cc2c(=O)n1CC as the molecule, how does the Potency read?
Answer: inconclusive [activator, full curve, poor fit]

Question: With CCOC(=O)/C(=C/c1c(C)n(C)c2ccc([N+](=O)[O-])cc12)C(C)=O as the molecule, how does the Potency read?
Answer: inactive

Question: Which Potency does the source give for NC(=O)c1ccsc1NC(=O)c1ccc(S(=O)(=O)N2CCCCC2)cc1 here?
Answer: inconclusive [activator, full curve, poor fit]

Question: With COc1ccccc1CC(=O)Nc1cc2oc3ccccc3c2cc1OC as the molecule, how does the Potency read?
Answer: inactive

Question: With Cc1nn(-c2nnc(NC3CCCCC3)nn2)c(C)c1Br as the molecule, how does the Potency read?
Answer: inconclusive [activator, partial curve, poor fit]

Question: Which Potency does the source give for CS(=O)(=O)Nc1cccc(C2=NN(S(C)(=O)=O)C(c3ccc4c(c3)OCO4)C2)c1 (stereo not given) here?
Answer: inconclusive [activator, full curve, poor fit]

Question: With O=C(Nc1ccc(F)cc1F)c1ccc2ncsc2c1 as the molecule, how does the Potency read?
Answer: inconclusive [activator, full curve, poor fit]

Question: Which Potency does the source give for Clc1ccccc1CSc1nnc([C@@H]2CCCN2)o1 here?
Answer: inactive

Question: Which Potency does the source give for CCN1CCN(CCCNC(=O)C(=O)c2c(C)[nH]c3ccccc23)CC1 here?
Answer: inconclusive [activator, partial curve, poor fit]

Question: Which Potency does the source give for Cn1c(-c2ccc(C(C)(C)C)cc2)n[nH]c1=S here?
Answer: inactive

Question: Which Potency does the source give for CCOCCOC(=O)C1=C(C)NC(=O)NC1c1cc2c(cc1Br)OCO2 (stereo not given) here?
Answer: inconclusive [activator, partial curve, poor fit]

Question: For CC(C)Oc1ccc(/C(O)=C2/C(=O)C(=O)N(CCN(C)C)C2c2cccs2)cc1 (stereo not given), which Potency is on record?
Answer: inconclusive [activator, partial curve, poor fit]

Question: For CCCCNC(=O)c1cc(-c2ccc3c(c2)OCO3)on1, which Potency is on record?
Answer: inconclusive [activator, full curve, poor fit]

Question: For COc1cccc(C(=O)Nc2ccc3c(c2)OCO3)c1OC, which Potency is on record?
Answer: inconclusive [activator, partial curve, poor fit]
